Biological target: Recombinant human CAF1 (CCR4-associated factor 1), GST tag removed (human, UniProt Q9UIV1)
Test: pull-down

binding result: binds
B1: GST-BTG2 E115A (natural protein)
chain: not shown

From PMC2588512 (Nucleic Acids Research, 2008)
